# Source: paper PMC4336329 (PLoS ONE, 2015)
# About 14,000 (4.5%) of roughly 310,000 compounds showed an effect of 50% or more. The effect is printed as a negative number. The list shows a part of the results.
# Target: human ether-à-go-go-related gene (hERG) potassium channel (human, UniProt Q12809)
# Assay: primary screen, population patch clamp on CHO cells stably expressing hERG
# 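Further: peak tail current of the secondary pulse compared with the same well before compound.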
# Sequence of human ether-à-go-go-related gene (hERG) potassium channel (Q12809 whole entry, looked up): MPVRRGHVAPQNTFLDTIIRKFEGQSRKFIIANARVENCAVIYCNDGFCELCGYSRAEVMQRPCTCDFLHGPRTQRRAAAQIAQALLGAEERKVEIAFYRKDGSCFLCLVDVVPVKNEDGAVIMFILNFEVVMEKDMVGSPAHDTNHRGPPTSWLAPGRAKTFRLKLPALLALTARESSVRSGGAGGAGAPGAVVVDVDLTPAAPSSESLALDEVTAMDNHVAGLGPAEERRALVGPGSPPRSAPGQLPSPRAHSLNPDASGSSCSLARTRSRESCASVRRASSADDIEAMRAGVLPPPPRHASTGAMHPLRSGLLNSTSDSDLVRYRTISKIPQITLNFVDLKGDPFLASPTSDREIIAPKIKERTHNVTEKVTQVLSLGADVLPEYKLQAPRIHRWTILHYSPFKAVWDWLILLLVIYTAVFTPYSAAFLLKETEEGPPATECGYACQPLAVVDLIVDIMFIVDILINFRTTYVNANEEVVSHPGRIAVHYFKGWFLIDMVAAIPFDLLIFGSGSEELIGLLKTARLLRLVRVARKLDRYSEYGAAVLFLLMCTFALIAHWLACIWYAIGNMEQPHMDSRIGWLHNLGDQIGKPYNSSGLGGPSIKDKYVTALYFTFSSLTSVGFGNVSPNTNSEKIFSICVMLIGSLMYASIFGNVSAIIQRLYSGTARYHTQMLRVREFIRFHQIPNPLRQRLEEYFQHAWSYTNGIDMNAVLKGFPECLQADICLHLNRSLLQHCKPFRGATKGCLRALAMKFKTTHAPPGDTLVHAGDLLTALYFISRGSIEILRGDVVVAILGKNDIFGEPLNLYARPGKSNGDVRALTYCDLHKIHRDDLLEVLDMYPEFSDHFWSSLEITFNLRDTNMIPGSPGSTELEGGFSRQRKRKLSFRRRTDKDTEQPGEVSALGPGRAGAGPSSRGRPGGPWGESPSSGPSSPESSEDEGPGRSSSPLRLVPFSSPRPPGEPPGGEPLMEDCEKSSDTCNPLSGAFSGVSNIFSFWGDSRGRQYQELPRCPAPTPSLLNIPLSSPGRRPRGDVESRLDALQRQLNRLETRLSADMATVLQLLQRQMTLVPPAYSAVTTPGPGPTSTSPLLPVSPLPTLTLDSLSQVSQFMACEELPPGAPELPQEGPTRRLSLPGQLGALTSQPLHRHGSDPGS
row,SMILES,"hERG current change (%, negative = inhibition) at 10uM"
1,Cc1nn(-c2ccc([N+](=O)[O-])cc2)c2c1C(c1ccc(OC(F)F)cc1)N1C(=N2)C(=O)Nc2ccccc21 (centres unmarked),-4.16%
2,O=C(NCc1ccc2c(c1)OCO2)c1cccc([N+](=O)[O-])c1,-15.8%
3,CC(Oc1ncnc2ccccc12)C(=O)Nc1cccc(S(=O)(=O)N2CCOCC2)c1 (centres unmarked),-11.3%
4,O=S(=O)(NCCCN1CCOCC1)c1ccc2c(c1)OCCO2,24.4%
5,CCN(CC)S(=O)(=O)c1ccc(OC)c(NS(=O)(=O)c2cccc(C(=O)O)c2)c1,11.3%
6,COc1cccc(/C=C/C(=O)Nc2cccc(C(C)=O)c2)c1OC,19.5%
7,Cc1nn(C)cc1CNC(=O)c1cnn2c1NC(c1ccc(Br)cc1)CC2C(F)(F)F (centres unmarked),-20.3%
8,COc1ccc(Cn2c(-c3ccc(OC)cc3)nc3c(c(=O)c4ccccc4n3C)c2=O)cc1,-11.4%
9,COc1cc(OC)c(C2C(C#N)=C(N)Oc3cc(C)n(CCCN4CCOCC4)c(=O)c32)cc1OC (centres unmarked),-4.15%
10,Cc1cc(=O)n2[nH]c(COc3ccccc3)nc2n1,-4.43%
11,COc1ccc(CNC(=O)CSc2nnnn2-c2ccc(O)cc2)cc1,-11.2%
12,COc1ccc(CCNC(=O)CSc2nn(-c3ccccc3)c(=S)s2)cc1OC,-16.5%
13,O=C(NCc1nc2ccccc2[nH]1)C1=C[C@@H](c2ccc(Br)cc2)C[C@@H](OCCCCO)O1,-65.9%
14,CCCOC(=O)C1[C@H]2C(=O)N(CC3CCCO3)C[C@]23C=C[C@H]1O3 (some centres unmarked),7.13%
15,CC[N+](C)(C)CCN(Cc1ccc(Cl)cc1)c1ccccn1.[Br-],-68.6%
16,CC1=N/C(=C\c2ccccc2Cl)C(=O)O1,15%
17,Cc1cc(O)c(C(C)C)cc1NC(=O)c1ccc(Cl)cc1,-0.0659%
18,COc1cc2c(cc1O)[C@@H]1Cc3cc(O)c(OC)cc3[C@H](C2)N1C,11.3%
19,CCOC(=O)C(=Cc1c[nH]c2ccc(S(=O)(=O)N(C)C)cc12)C(=O)OCC,-25.3%
20,CCOC(=O)/C(C#N)=C\C=C1C=CN(C)C=C1,0.0919%
21,CC1Cc2nc(SCC(N)=O)n(Cc3ccccc3)c(=O)c2S1 (centres unmarked),-4.75%
22,COc1ccc(C2C(C(=O)c3ccccc3)=C(C)Nc3nc4ccccc4n32)cc1OC (centres unmarked),-3.25%

row,SMILES,"hERG current change (%, negative = inhibition) at 10uM"
1,COc1cccc(Oc2nc(-c3ccccc3O)nc3ccccc23)c1,7.57%
2,NC(=O)NC(Cc1ccccc1)C(=O)NCCCSc1ccccc1 (centres unmarked),5.04%
3,CS(=O)(=O)Nc1nnc(C2CCCC2)s1,24%
4,CN(CC(=O)NCc1ccco1)S(=O)(=O)c1cccc2cccnc12,-1.47%
5,CNC(=O)/C(=C\c1ccc([N+](=O)[O-])cc1)NC(C)=O,-28.8%
6,Cc1cc(=O)[nH]c(N/N=C/c2ccccc2Cl)n1,12%
7,Cc1cccc(OC(C)C(=O)Nc2cc(Cl)ccc2-n2cncn2)c1 (centres unmarked),-3.91%
8,Cn1cc(S(=O)(=O)N2CCN(c3cccc(Cl)c3)CC2)c(=O)n(C)c1=O,-4.88%
9,O=c1[nH]c2ccc(NC(=S)Nc3ccccc3)cc2[nH]1,-3.95%
10,COc1ccccc1NC(=O)Oc1ccc(C(C)=O)cc1,13%
11,Cc1ccc(C)n1-c1cccc(S(=O)(=O)N2CCOCC2)c1,7.55%
12,CCCCNc1c([N+](=O)[O-])c(=O)n(C)c2ccccc12,-9.14%
13,COCCCNC(=O)c1cc(OC)c(OC)c(OC)c1,4.25%
14,Cc1ccc(CNC(=O)c2cccc(-n3cnnn3)c2)cc1,-13.3%
15,CCc1ccc(-c2cc(C(F)(F)F)n3nc(C(=O)Nc4cnn(Cc5ccc(C)cc5)c4)cc3n2)s1,-6.81%
16,CCOc1ccc(N(CC(=O)NC(C)CC)S(C)(=O)=O)cc1 (centres unmarked),5.96%
17,O=C(Nc1ccc(F)cc1)c1nc[nH]c1C(=O)O,25.2%
18,CCNc1nc(NCC)n2c(SCC(=O)Nc3cc(OC)ccc3OC)nnc2n1,9.07%
19,Cc1cc(C)n(C2CCCCC2OC(=O)CCc2ccccc2)n1 (centres unmarked),3.86%
20,CCCCCCNCc1cccc(Br)c1.Cl,-11.3%
21,C/C=C/c1ccc(OCCCNCC(C)O)c(OC)c1 (centres unmarked),-29.2%
22,CCOc1ccc(N(CC(=O)Nc2ccc(C)cc2)S(=O)(=O)c2c(C)[nH]c(=O)[nH]c2=O)cc1,12.8%
